110 compounds from PubChem BioAssay AID488969 (Vanderbilt High Throughput Screening Facility, 2010) can be followed below.

Structures are written as SMILES. The full ranking holds about 110,000 compounds; the median of “z-score” is about -0.1, and the highest 2% start at about 2. This is one part of the list. Active and inactive are the calls of the source.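 The calls were made as follows: active = z-score in the third read window above 3 or below -3; inactive = the rest.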

This assay has as its target Metabotropic glutamate receptor 8 (Rattus norvegicus) (UniProt P70579). In words: mGluR8 Gi/Go-coupled signaling modulation – cell-based, rat, thallium flux, HTS, primary screen (AID 488969). The settings on record: HEK293 rat mGluR8, GIRK (G protein-gated inwardly rectifying potassium channel) thallium flux, FluoZin2; at 10 µM; stronger effect = higher value; submaximal glutamate (EC20) added with thallium.
UniProt P70579, sequence (P70579 whole entry, looked up): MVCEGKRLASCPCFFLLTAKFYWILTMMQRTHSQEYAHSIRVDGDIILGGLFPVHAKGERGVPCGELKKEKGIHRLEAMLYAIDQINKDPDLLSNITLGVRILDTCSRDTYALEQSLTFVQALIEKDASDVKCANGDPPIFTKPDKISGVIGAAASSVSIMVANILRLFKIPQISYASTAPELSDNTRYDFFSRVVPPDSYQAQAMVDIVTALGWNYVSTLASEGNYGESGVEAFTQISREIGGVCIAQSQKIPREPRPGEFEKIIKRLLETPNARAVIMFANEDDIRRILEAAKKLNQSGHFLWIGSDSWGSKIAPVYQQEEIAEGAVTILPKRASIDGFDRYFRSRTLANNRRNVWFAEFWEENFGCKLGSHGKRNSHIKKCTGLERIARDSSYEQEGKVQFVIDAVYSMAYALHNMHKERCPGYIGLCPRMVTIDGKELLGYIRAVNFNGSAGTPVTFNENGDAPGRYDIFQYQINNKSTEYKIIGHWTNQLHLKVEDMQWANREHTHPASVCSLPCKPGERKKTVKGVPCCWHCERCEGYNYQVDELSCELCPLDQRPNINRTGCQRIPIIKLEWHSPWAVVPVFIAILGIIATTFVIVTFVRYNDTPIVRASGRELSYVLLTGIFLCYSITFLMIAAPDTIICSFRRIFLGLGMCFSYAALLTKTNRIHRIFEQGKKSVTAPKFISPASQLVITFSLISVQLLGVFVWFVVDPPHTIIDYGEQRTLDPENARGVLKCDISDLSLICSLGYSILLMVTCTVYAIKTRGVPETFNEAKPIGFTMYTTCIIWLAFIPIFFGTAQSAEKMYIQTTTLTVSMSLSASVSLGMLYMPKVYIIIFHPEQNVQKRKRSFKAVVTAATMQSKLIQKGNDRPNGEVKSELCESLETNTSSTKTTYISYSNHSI
`CCn1c(SCC(=O)C(C)(C)C)nnc1-c1ccccn1` yielded a z-score of -0.225.
Next, `CCOc1ccc(NC(=O)Cn2nnc(-c3ccccc3NC(=O)c3cccs3)n2)cc1`: -0.124; `CCOC(=O)C(NC(C)=O)(Nc1ccc(S(=O)(=O)Nc2ccncn2)cc1)C(F)(F)F` (stereo not given): -0.157.
Under `CCOC(=O)C(C(=O)OCC)N(C#N)c1nc(C)cc(C)n1` stands -0.0634; under `CCCCNC(=S)NNC(=O)c1ccco1`, -0.0425.
Next, `CCn1c(COc2ccccc2C)nnc1SCC(=O)NC1CCCC1`: -0.187; `O=S(=O)(Nc1ccc(S(=O)(=O)N2CCCCCC2)cc1)c1cccs1`: 1.03.
In turn, `O=Cc1cccn1Cc1ccccc1[N+](=O)[O-]` displayed a z-score of 0.113.
For `CCC(=O)Nc1nc(C)c(-c2csc(Nc3ccc(S(=O)(=O)Nc4cc(C)on4)cc3)n2)s1`, the z-score is -0.662.
Regarding `Cc1cccc(C)c1NC(=O)c1sccc1SCc1cccc(C(F)(F)F)c1`, the z-score came to 0.244.
Next, `OCCNCc1ccc(OC2CCCC2)cc1`: 0.000809; `COc1cc(C2C(C(C)=O)=C(C)Nc3ncnn32)ccc1O` (stereo not given): 0.195; `CC(=O)c1cccc(NC(=O)C2CCCN2S(=O)(=O)c2cccc3cccnc23)c1` (stereo not given): active: 4.14.
Take `Cc1nnc(SCc2nc(N)nc(Nc3ccccc3)n2)s1`: the z-score is -0.209.
Under `COCCn1cc(C(=S)N2CCOCC2)c2ccccc21` stands 0.108; under `COc1ccccc1C(OC(=O)c1ccco1)C(=O)NC(C)(C)C` (stereo not given), -0.346.
Next, `CC1=CC(=O)C=C(C)C1=NOC(=O)c1cccc([N+](=O)[O-])c1`: -0.159.
Under `O=C(NCCc1c[nH]c2ccc(Cl)cc12)c1cccnc1` stands -0.113.
`Cc1nn(-c2ccccn2)c2c1-c1nc(N3CCOCC3)ncc1CC2` yielded a z-score of 0.276.
The compound `Cn1c(=O)c2c(nc(N3CCc4ccccc4C3)n2Cc2ccc(Br)cc2)n(C)c1=O` gave a z-score of 0.168.
As for `Brc1ccc(/C=C/C=N/Nc2nc3ccccc3s2)cc1`, the z-score is -2.76.
Regarding `COc1cccc(Nc2ncccc2C(=O)Nc2ccccc2)c1`, the z-score came to 0.231.
Next, `Cc1ccc(Cn2ncc3c(N4CCOCC4)ncnc32)cc1`: 0.941; `Cc1ccc(C(=O)N/C(=C/c2ccco2)C(=O)NCCc2c[nH]c3ccccc23)cc1C`: -0.366; `CN1CCN(c2ccc(NC(=O)COc3ccccc3Cl)cc2)CC1`: 0.89.
As to `CCOC(=O)c1ccc(NC(=O)CSc2nnc(COc3ccccc3OC)n2C)cc1`, the z-score came to 0.225.
Under `O=C1NC(=O)c2c(NC(=O)C3CCCO3)cccc21` (stereo not given) stands 0.0676.
Consider `CNS(=O)(=O)c1cccc(C(=O)OCC(=O)Nc2sc3c(c2C#N)CCCCC3)c1`, for which the z-score is -0.236.
For `CC1CCCCN1c1nnc(NC(=O)Cn2c(=O)oc3ccccc32)s1` (stereo not given), the z-score was -0.326.
Under `CC(C)Oc1nc(-c2ccccc2O)nc2ccccc12` stands -0.0666.
Take `CCOC(=O)N1CCN(C(=O)CCN2C(=O)COc3ccccc32)CC1`: the z-score is -0.301.
Next, `COc1ccc(CCNC(=O)COC(=O)/C=C/c2ccc(OCC#N)c(OC)c2)cc1OC`: -0.482.
Regarding `CCOC(=O)c1sc2nc(SC)nc(-c3ccccc3)c2c1N`, the z-score was -0.0533.
Next, `Cc1ccc(-c2nnc(SCC#N)n2N)cc1`: 0.0429; `CC(C)n1c(-c2cccs2)nc2ccccc21`: -0.753.
On to `CN(CC(=O)O/N=C(\N)c1ccccn1)S(=O)(=O)c1ccc(Br)cc1`, for which the z-score is -0.661.
`O=C(OCc1cn(-c2ccc(Cl)cc2)nn1)c1ccccc1` had a z-score of 0.00665.
The compound `Cc1nn(-c2ccccc2)c(C)c1/C=N/O` showed a z-score of -0.0883.
Next, `Cn1c(SCCOc2ccc(Cl)cc2)nnc1-c1ccncc1`: -0.889; `CC(C)OCCCNS(=O)(=O)c1ccc2c(c1)OCCO2`: 0.944; `O=C(CN1CCN(S(=O)(=O)c2ccc(Br)cc2)CC1)N/N=C/c1ccc(Cl)c([N+](=O)[O-])c1`: -0.167.
Next, `CC(/C=N/NC(=O)c1n[nH]c2c1CCC2)=C\c1ccccc1`: -0.181.
Next, `COC(=O)CCC(=O)Nc1cccc(Cl)c1`: -0.0969.
In the case of `CCOC(=O)c1nc2cc3n(c(C)c-2c1C)C(C)C(CC)=C3C` (stereo not given), the z-score came to 2.31.
Under `CCCCOc1ccc(C(=O)C(CN2CCOCC2)c2ccccc2)cc1` (stereo not given) stands -0.0119.
Next, `CCOC(=O)CC1C(=O)NCCN1C(=O)NC1CCCCC1` (stereo not given): -0.168.
For `CC(C)(C)C1CCC(=NNC(=O)c2ccccc2-n2cccc2)CC1` (stereo not given), the z-score was -0.0903.
The compound `COc1cccc2c1OCC/C2=N\NC(=O)COc1ccccc1C` came in with a z-score of -0.235.
The compound `Cc1cc(C)n2nc(C(=O)N3CCOCC3)nc2n1` yielded a z-score of 1.43.
Compound `CN(C)c1nc(N)nc(Cn2ccnc2)n1` displayed a z-score of 0.206.
In turn, `COCCN(C(=O)Cc1cccs1)c1nnc(-c2ccncc2)s1` showed a z-score of -0.0562.
Next, `Cc1ccc(-n2nc(C(=O)N/N=C/c3cccc(C(F)(F)F)c3)c3ccccc3c2=O)cc1C`: 0.099; `COc1ccc(OC)c(S(=O)(=O)N2CCC(C(=O)NCCc3ccc(OC)c(OC)c3)CC2)c1`: -0.718.
`O=C(C1CCC(CNS(=O)(=O)c2cccc3cccnc23)CC1)N1CCCC1` (stereo not given) yielded a z-score of -0.035.
Under `O=C(Nc1sc2c(c1C(=O)NCc1ccco1)CCCC2)c1ccc2c(c1)OCO2` stands -0.422; under `CCc1cc(C(=O)OC)c(NC(=O)CC2Nc3cc(C)c(C)cc3NC2=O)s1` (stereo not given), -0.628; under `Cc1cn2c(nc1=O)OC1C(O)C(COC(=O)c3ccccc3)OC12` (stereo not given), 0.0313.
Under `CC1=CC(C)(C)N(C)C(=O)N1c1ccc(Cl)cc1` stands -0.475; under `O=C(CSc1nnnn1-c1cccc2c1CCCC2)NC1CCCC1`, active: 5.15; under `CCOc1ccc(N2C(=O)C(Cl)=C(Nc3ccccc3O)C2=O)cc1`, -0.473.
With `Cc1ccc(C(=O)c2c(NC(=O)c3cccnc3)sc3c2CCCC3)cc1`, the z-score was -0.259.
`CCCCOC(=O)N/N=C/C=C/c1ccccc1`: the z-score is -0.446.
Under `CC(=O)c1cc(-c2nc3ccccc3n2C)n(C)c1` stands -0.0365; under `C=C1CC2C3CC[C@@]4(OCOC45COCO5)[C@@]3(C)C(O)CC2[C@@]2(C)CCC(=O)C=C12` (stereo not given in full), 0.105.
For `Cc1ccc2[nH]c(O)c(N=NC(=O)CCc3ccccc3)c2c1Br`, the z-score is -0.296.
Next, `Cc1ccc(S(=O)(=O)N2CCN(C(=O)CSc3nnnn3C)C2)cc1`: -0.0731; `COC(=O)c1cc2ccsc2n1CC(=O)Nc1cc(C)cc(C)c1`: 0.652.
Next, `COc1ccccc1Oc1c(C)oc2cc(OC(=O)c3ccco3)ccc2c1=O`: -0.622.
Under `COc1ccc2c(c1)C=C(C(=O)NCc1ccc(Cl)cc1)CO2` stands -0.401.
For the compound `CCOC(=O)c1c(CN2CCN(Cc3ccccc3)CC2)n(C)c2cc(Br)c(OC)cc12`, the z-score was 0.132.
Under `CC1CCc2c(sc(NC(=O)CSc3nc4c(c(C(F)(F)F)n3)CCc3ccccc3-4)c2C(N)=O)C1` (stereo not given) stands -0.229; under `COc1ccc(OC)c(NC(=O)CSc2ncccn2)c1`, -0.134.
In the case of `Cc1ccc(OCC(=O)Nc2ccc3c(c2)OCO3)c([N+](=O)[O-])n1`, the z-score was 0.0431.
Under `CSc1nsc(SC)c1C(=O)N1CCN(S(=O)(=O)c2ccc(C)cc2)C1C(C)C` (stereo not given) stands -0.101; under `CCOC(=O)c1c(-c2ccccc2)n(C)c2ccc(O)cc12`, -0.22; under `Cc1cc(=O)oc2ccc(OCC(=O)NCc3ccco3)cc12`, 0.0447.
`O=C(Cc1ccccc1)N1CCC(C(=O)N2CCN(c3ccc(F)cc3)CC2)CC1` showed a z-score of -0.407.
On to `CCCn1c(O)c2ccc(C(=O)N=NC(=O)c3cccnc3)cc2c1O`, for which the z-score was -0.213.
Under `CCCOC(=O)c1ccc(OCC(O)CN2CCN(C(=O)c3ccccc3)CC2)cc1` (stereo not given) stands -0.174; under `CC(n1cnnn1)C12CC3CC(CC(C3)C1)C2` (stereo not given), -0.109.
`O=C(Nc1cccc(S(=O)(=O)N2CCOCC2)c1)[C@@H]1CCCN1S(=O)(=O)c1ccc(Cl)cc1` came in with a z-score of -0.283.
Next, `CN(C)c1ccc(/C=N/NC(=S)NCc2ccco2)cc1`: 0.0065; `O=C(COC(=O)C1CCN(S(=O)(=O)c2cccs2)CC1)c1ccc2c(c1)OCCO2`: -0.539.
Next, `S=C(NCCc1ccccc1)NC1CC1`: -0.0025.
Next, `Cc1cccc(N2CSC3=C(C#N)C(c4ccc(C)o4)CC(=O)N3C2)c1` (stereo not given): -0.375.
In the case of `Cc1cccc(N2CCN(C(=O)c3cccc(S(=O)(=O)N4CCc5ccccc5C4)c3)CC2C)c1` (stereo not given), the z-score is -0.537.
With `CCOC(=O)c1oc2nc(C(C)C)c3c(c2c1N)CCC3`, the z-score came to 0.0843.
Turning to `O=C(Nc1ncn[nH]1)c1ccc(Cl)c(S(=O)(=O)N2CCCCCC2)c1`, the z-score was -0.368.
`COc1ccccc1CC(=O)N(CCC#N)CCC#N`: the z-score is -0.512.
Under `CCOC(=O)c1c(C)n(C)c2cc(Br)c(C)cc12` stands 0.0367.
Under `O=S(=O)(NCCCCCNS(=O)(=O)c1ccccc1)c1ccccc1` stands 0.239.
Under `Cc1nc(SCC(=O)NC(=O)NCc2ccccc2)nc(C)c1C` stands 0.372.
`NC(=O)SCC(=O)Nc1ccc(Cl)cc1`: the z-score was active: 5.18.
Under `Cc1ccc(NC(=O)Cn2c(=O)oc3cc(S(=O)(=O)N4CCC(C)CC4)ccc32)cc1C` stands -0.417; under `CCCCN1CC2([N+](=O)[O-])C=CC(=O)C([N+](=O)[O-])(C1)C2CC(=O)c1ccccc1` (stereo not given), 0.124.
Next, `COc1ccc(OC)c(/C=N/NC(=O)c2[nH]nc3c2CCc2ccccc2-3)c1`: -0.0907.
Take `COc1ccc(C(=O)NC(=S)NNC(=O)c2cnccn2)cc1OC`: the z-score is -0.43.
`c1nc(N2CCOCC2)c2c3c(sc2n1)CCCC3`: the z-score was -0.441.
Next, `COc1cc(C(O)P(=O)(OC(C)C)OC(C)C)cc(OC)c1OC` (stereo not given): -0.0504; `c1ccc(-c2ccc(-c3csnn3)cc2)cc1`: 0.0432; `CCC(SC1=NCCS1)C(=O)Nc1ccc(S(N)(=O)=O)cc1` (stereo not given): -0.397.
For the compound `O=C(NC(Cc1ccc2c(c1)OCO2)C(=O)N1CCCC1C(=O)O)c1ccccc1` (stereo not given), the z-score is -0.0785.
Under `CCCC(=O)c1cc(-c2nc3ccccc3n2C)n(C)c1` stands 0.164; under `O=C(COC(=O)c1cccs1)NCCC1=CCCCC1`, 0.0493.
`COc1cc(NC(=O)c2cc3c(Cl)nc4ccccc4c3s2)cc(OC)c1OC` registered a z-score of 0.176.
On to `COc1ccc(NC(=O)CC2C(=O)N(c3cccc(C)c3)C(=O)N2C2CCCCC2)cc1` (stereo not given), for which the z-score is -0.0942.
Under `Cc1cccc(NC(=O)c2cccc(N3C(=O)C4C5CCC(C5)C4C3=O)c2)c1C` (stereo not given) stands -0.379; under `COc1ccc(CC(=O)N2CC(=O)N(CCc3ccccc3)C(=O)C2)cc1`, 0.258.
Compound `O=C(Nc1c(F)cc(F)cc1Br)c1cc(-c2ccco2)on1` yielded a z-score of -0.358.
Next, `CCCCc1nnc(NC(=O)C=C(C)C)s1`: -0.873.
